Results from the RNAGym collection of RNA variant scans (doi:10.1073/pnas.2313332121).
This sample is rich in variants without activity.

B1: TPR 5TU (parent)
chain: GGAUCUUCUCGAUCUAACAAAAAAGACAAAUCUGCCACAAAGCUUGAGAGCAUCUUCGGAUGCAGAGGCGGCAGCCUUCGGUGGCGCGAUAGCGCCAACGUUCUCAACUAUGACACGCAAAACGCGUGCUCCGUUGAAUGGAGUUUAUCAUG

Variants of: B1
Assay: polymerase ribozyme fitness, log enrichment relative to wild type (log ratio); higher = more active; in vitro selection for triplet polymerase activity
Summary of the method: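 Only genotypes with ≥10 input reads and ≥1 read per output were kept after Illumina sequencing of input and output libraries. These libraries were PCR-built, transcribed mutants of each subunit of a heterodimeric triplet polymerase ribozyme, each put through one triplicate in vitro selection round with frozen incubation at −7 °C, gel excision of extended constructs, streptavidin-bead capture and RT-PCR. Fitness is a logarithmic ratio of genotype enrichment to wild-type enrichment, from inverse-variance-weighted replicate averages, with the logarithm in base 2.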

Row | Variant | polymerase ribozyme fitness (log ratio)
1 | A24C C27U C54G G94U A106C | ≤ -4.2
2 | A26C U31G U45G | ≤ -4.2
3 | A24U C27A C54A A150G | ≤ -4.2
4 | A24C U45A G50U C51U C75G C85G G126U G140U | ≤ -4.2
5 | A24U C54U C93G G94A C95U A113U C149A | ≤ -4.2
6 | A23U G94A | -3.99
7 | G25A A49G C96G | -3.91
8 | G25U A39G U61A U77A C87U G141A U151A | ≤ -4.2
9 | A24U U31A A37U G143C | ≤ -4.2
10 | G25U A89U C96G G100A U102C C118A A119G | ≤ -4.2
11 | A24G U56A A137U | ≤ -4.2
12 | A26C C27G C51G G83C A89C A138G A142U | ≤ -4.2
13 | A23U G88U C116U G140U G143U U146G | ≤ -4.2
14 | G25A G46U A64U G86U G88C C93G C123G | ≤ -4.2
15 | A26C A41C C57G | -3.4
16 | A23U U33G C54U C57A G74A | ≤ -4.2
17 | G25U G42C U55A C87G A91C C93A G126U | ≤ -4.2
18 | G25U U45A G83C A107U U109C | ≤ -4.2
19 | A24U U55G A142U A150G | ≤ -4.2
20 | A24U C35U G68U C85G A89U A91U | ≤ -4.2
21 | A24C A29C A47U C57A U82A G84A A121U | ≤ -4.2

Row | Variant | polymerase ribozyme fitness (log ratio)
22 | A24U C54A C79A | ≤ -4.2
23 | A24C A49C C51U C85U U101A G117C G133U | ≤ -4.2
24 | A26C A73U C93G C105G G143A U151A | ≤ -4.2
25 | A24C A40U U55A U104C G126U U139A | ≤ -4.2
26 | A26C C93G C125U | ≤ -4.2
27 | A24G A26U A40C U44A C79U G86A U102A U130G A137C | ≤ -4.2
28 | A24G G50A G80U G88A | ≤ -4.2
29 | G25U A30U C35A G50A C96U A107U | ≤ -4.2
30 | A24U A37C G58A C69U C72A C85A C118A | ≤ -4.2
31 | A24C C38U C69U G80A C87A G140A G143A | ≤ -4.2
32 | G25U U31A A73U A107C A113G G141A | ≤ -4.2
33 | A24U A41C G42A C95U A98U G117A | ≤ -4.2
34 | G25C C36A A91C G94U A97C A122C | ≤ -4.2
35 | A24U A39U C57U U61G C85U C103U C125U | ≤ -4.2
36 | A24C C51U C105G | ≤ -4.2
37 | A26C C96U G124A | -1.67
38 | G25U G83A | -3.4
39 | G25A C69G G70A C87A G140U | ≤ -4.2
40 | A24G C57U G59C C96A G117A | ≤ -4.2
41 | G25U U55A C72G C93G G140A | ≤ -4.2
42 | G25A U44G | ≤ -4.2

Row | Variant | polymerase ribozyme fitness (log ratio)
43 | A24U A49C U53A C87U C99A C103A U139C | ≤ -4.2
44 | A24C C54G C76U U78A C105A A147C | ≤ -4.2
45 | G25A G42U G80A C93U C116U | ≤ -4.2
46 | A24U A28U C79G A91U A97U C116U C132U U135A | ≤ -4.2
47 | G25U G48A G84A C96G | -4.04
48 | A24U A29U G48A | ≤ -4.2
49 | A26C C57A A60C G88A U109G A110G C118G | -3.98
50 | G25A U82C C105U C114U | ≤ -4.2
51 | A24G C27G A73C U78A C99U C116U C129G | ≤ -4.2
52 | G25C A60G G86C C105U | -3.36
53 | A23U G62A A64C G65U A89C | ≤ -4.2
54 | A24C G86C G143A U148C | ≤ -4.2
55 | G25C C93U | -3.59
56 | A24U G86U | -2.59
57 | A24U A28C C35A C38G C79G G84C C116A C123G U144C | ≤ -4.2
58 | G25U C85U U101C | -2.41
59 | A23U G68U C85U G117U | ≤ -4.2
60 | G25C C76U C93U G136U | ≤ -4.2
61 | A24G U44G | ≤ -4.2
62 | A24C U55A G65A C99A | ≤ -4.2
63 | A24C U55A G88A C96A A119C G143C | ≤ -4.2

Row | Variant | polymerase ribozyme fitness (log ratio)
64 | A24U A52C G67C U82G U109G | ≤ -4.2
65 | A24U G58A C79G A91U C118A G141C | ≤ -4.2
66 | G25C G50A C85U A91U G92C C99A U101G U102C C125G | ≤ -4.2
67 | A26C G80C C114G | ≤ -4.2
68 | G25U G84A C131U G136A U144G | -1.89
69 | A24C C32G C43G C87G U104G A115C | ≤ -4.2
70 | A26C C51U A52C G59C | ≤ -4.2
71 | A24C C27U U61A A91C A106G G141A | ≤ -4.2
72 | A24U G34U G42A U55G A91C G94A | -3.62
73 | A24G A137G | ≤ -4.2
74 | A24U C72U C76A U104G U151C | ≤ -4.2
75 | A26C U144G | -0.859
76 | A26C C43U A52G G71C A97G | ≤ -4.2
77 | A24C A73U C79U G88U G126A | ≤ -4.2
78 | A24C G58C A150G | ≤ -4.2
79 | A26C A49C G58C A73U A106G A138U G143U | ≤ -4.2
80 | G25C C38A C72G U109G | ≤ -4.2
81 | A24U G58C C85U C93G A97G C118U | ≤ -4.2
82 | A26C C54U C85G C87U U111C G133C | ≤ -4.2
83 | A24U U77G C105G A120U | ≤ -4.2
84 | A23U U77A G88U G141A C149A | ≤ -4.2
